From the supplement of paper PMC4166925
± gives the standard deviation of the averaged measurements. The full ranking holds about 33,000 sequences; the median of “E-score (dimensionless, -0.5 to 0.5)” is about -0.046, and the highest 2% start at about 0.36. Some of the results follow.

These sequences were tested on T1, SpTbr T-box DNA-binding domain (GST fusion) (assay: PBM E-score of 8-mer (E-score (dimensionless, -0.5 to 0.5)); Tbr is Tbrain of the sea star Patiria miniata (Pm) or the sea urchin Strongylocentrotus purpuratus (Sp); higher = stronger binding preference; most listed sequences are background and not binding sites). Conditions: the construct has about 5 more residues each side.
T1 sequence: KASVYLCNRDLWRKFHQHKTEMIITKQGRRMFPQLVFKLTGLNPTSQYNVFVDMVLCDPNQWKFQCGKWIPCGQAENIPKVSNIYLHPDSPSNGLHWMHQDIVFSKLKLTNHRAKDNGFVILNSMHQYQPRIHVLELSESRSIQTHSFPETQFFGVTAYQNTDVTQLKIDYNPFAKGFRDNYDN
Summary of the method: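 Universal Agilent oligonucleotide arrays, made double-stranded by primer extension, were incubated with 200 nM GST-fused Tbr T-box DNA-binding domain in PBS (pH 7.5). The protein was expressed in BL21 E. coli at 20 °C and purified by glutathione affinity chromatography. After scanning and quantification, the Universal PBM Analysis Suite assigned an enrichment E-score to each ungapped 8-mer, averaged over duplicate arrays.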

Sequence | PBM E-score of 8-mer
AAAGGCGG | 0.0871 ± 0.015
ACATTTAA | -0.0206 ± 0.06
ATGTACGC | -0.0378 ± 0.0063
GCCCGCAC | 0.0289 ± 0.04
ACGATATG | 0.0283 ± 0.016
GCACGGTA | -0.0476 ± 0.042
CTGACTCC | -0.113 ± 0.088
CTCTTAAC | -0.147 ± 0.018
ACGAGAAC | 0.186 ± 0.0072
TATCAAGA | -0.227 ± 0.059
AACGCTTG | 0.182 ± 0.0086
ACCTGATC | 0.0465 ± 0.058
TGTATAAA | -0.175 ± 0.0027
AAACCCTC | -0.0489 ± 0.035
ACAGAACC | -0.0524 ± 0.08
TACTATAA | -0.105 ± 0.12
CAGCAACC | -0.109 ± 0.025
AACGATGA | -0.169 ± 0.036
GTTTACGA | 0.0241 ± 0.021
ACCCATAT | -0.0302 ± 0.0029
ACTCGGAG | 0.02 ± 0.05
CAGGCGCG | 0.323 ± 0.0063

Sequence | PBM E-score of 8-mer
CCGCTCCG | -0.278 ± 0.084
CGAGAGCG | 0.167 ± 0.046
AGTTCCTA | -0.0351 ± 0.048
CTCCCAGA | -0.0507 ± 0.038
GCCATGGC | -0.331 ± 0.018
ACAGAAGC | -0.112 ± 0.011
AGCACCCA | 0.15 ± 0.073
ATACGAAC | -0.1649 ± 0.00096
GAGGGGGA | -0.18 ± 0.058
ACTGATCG | -0.033 ± 0.09
GCCTGGGA | -0.203 ± 0.039
AAACTACA | 0.014 ± 0.14
CATCGAAC | -0.0765 ± 0.093
ACGGCAGA | 0.00639 ± 0.087
ATCATGTG | 0.0234 ± 0.06
AACTTAGT | -0.0372 ± 0.035
ATAATGCG | 0.0553 ± 0.067
GGCTCCCC | -0.219 ± 0.0066
CGGGATAC | 0.0581 ± 0.057
AATGAGAA | -0.217 ± 0.014
CCTGTACC | -0.281 ± 0.019
CCGACAAC | 0.159 ± 0.048

Sequence | PBM E-score of 8-mer
ACCCACCT | 0.119 ± 0.0025
AGTCGAAT | -0.204 ± 0.031
AGGTGGGC | -0.0803 ± 0.021
AACCGTTC | 0.13 ± 0.033
CCTGTCAC | 0.3163 ± 0.0011
TATAACAA | 0.105 ± 0.024
ATTTCGTC | -0.0211 ± 0.029
CCCGAGGG | -0.341 ± 0.026
GTGAAGTA | 0.2369 ± 0.00032
ATTGCACA | 0.121 ± 0.053
CGCACGAC | 0.133 ± 0.02
CGGGGAGC | -0.128 ± 0.016
GAGAAGTA | -0.0397 ± 0.029
CGTCACAG | 0.232 ± 0.0032
ACGCACAC | 0.267 ± 0.036
AGTGTGAT | 0.4721 ± 0.0012
ATAAGCGA | -0.0998 ± 0.04
ATGCCCAA | -0.122 ± 0.1
ACGCGATC | 0.188 ± 0.038
CGAGGACA | 0.0382 ± 0.045
AGTCTGAT | -0.329 ± 0.021
GAGACACC | 0.304 ± 0.0089

Sequence | PBM E-score of 8-mer
GGCTTCAC | 0.142 ± 0.079
GCCGATGA | -0.124 ± 0.047
CATATAGA | -0.308 ± 0.047
ATCTGGTG | 0.0206 ± 0.029
CTAAACGA | -0.0951 ± 0.053
CTTCTCGA | 0.0756 ± 0.058
AAGTGTGT | 0.331 ± 0.0059
GGAAAGGA | -0.245 ± 0.043
GACCTAAC | 0.00654 ± 0.0056
AACGCCGG | -0.0149 ± 0.0048
CGTCTATA | -0.0259 ± 0.048
ACAGTAGT | 0.134 ± 0.026
GCGTAGAA | -0.19 ± 0.041
CACGACCC | -0.0721 ± 0.023
ACTGTGTG | 0.259 ± 0.0026
AACCTAGT | -0.16 ± 0.015
ATTTTTAC | -0.0791 ± 0.0015
ATGTTGTA | -0.0316 ± 0.062
AGCTGCTG | -0.04 ± 0.048
CCGTCAGA | -0.155 ± 0.046
